# Reference: the supplement of paper PMC8728848
# Some of the results follow.
# Tests used:
# Experiment in all cases: glycan array binding signal (z-score within array); higher = stronger binding
# Conditions in all cases: glycan notation: IUPAC condensed, linker removed
# [1] = molecular target: Fuc(a1-2)Gal(b1-4)[Fuc(a1-3)]GlcNAc
# How it was run: (§1)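 Glycan array data were curated from 3228 arrays in the Consortium for Functional Glycomics database and kept only where the protein sequence was available. Glycan names were converted to IUPAC-condensed notation, and columns mapping to the same glycan were averaged. The binding signal is a within-array Z-score, averaged across arrays of the same protein sequence at different concentrations or buffers and across linkers. Negative Z-scores can be read as non-binding.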
# [2] = molecular target: Fuc(a1-2)Gal(b1-4)[Fuc(a1-3)]GlcNAc(b1-2)Man(a1-3)[Fuc(a1-2)Gal(b1-4)[Fuc(a1-3)]GlcNAc(b1-2)Man(a1-6)]Man(b1-4)GlcNAc(b1-4)GlcNAc
# How it was run: as §1
# [3] = molecular target: Fuc(a1-2)Gal(b1-4)[Fuc(a1-3)]GlcNAc(b1-2)[Fuc(a1-2)Gal(b1-4)[Fuc(a1-3)]GlcNAc(b1-4)]Man(a1-3)[Fuc(a1-2)Gal(b1-4)[Fuc(a1-3)]GlcNAc(b1-2)Man(a1-6)]Man(b1-4)GlcNAc(b1-4)GlcNAc
# How it was run: as §1
# [4] = molecular target: Fuc(a1-2)Gal(b1-4)[Fuc(a1-3)]GlcNAc(b1-3)Gal(b1-4)[Fuc(a1-3)]GlcNAc
# How it was run: as §1
# [5] = molecular target: Fuc(a1-2)Gal(b1-4)[Fuc(a1-3)]GlcNAc(b1-3)Gal(b1-4)[Fuc(a1-3)]GlcNAc(b1-3)Gal(b1-4)[Fuc(a1-3)]GlcNAc
# How it was run: as §1
# [6] = molecular target: Fuc(a1-2)Gal(b1-4)[Fuc(a1-3)]GlcNAc(b1-3)GalNAc
# How it was run: as §1
# Fuc(a1-2)Gal6S(b1-4)Glc = molecular target: Fuc(a1-2)Gal6S(b1-4)Glc
# How it was run: as §1
# [7] = molecular target: Fuc(a1-2)Gal6S(b1-4)Glc6S
# How it was run: as §1
# [8] = molecular target: Fuc(a1-2)Gal6S(b1-4)GlcNAc
# How it was run: as §1
# Fuc(a1-2)GlcNAc = molecular target: Fuc(a1-2)GlcNAc
# How it was run: as §1
# Fuc(a1-2)[Gal(a1-3)]Gal = molecular target: Fuc(a1-2)[Gal(a1-3)]Gal
# How it was run: as §1
# [9] = molecular target: Fuc(a1-2)[Gal(a1-3)]Gal(b1-3)GalNAc
# How it was run: as §1
# [10] = molecular target: Fuc(a1-2)[Gal(a1-3)]Gal(b1-3)GlcNAc
# How it was run: as §1
# [11] = molecular target: Fuc(a1-2)[Gal(a1-3)]Gal(b1-3)GlcNAc(b1-2)Man(a1-3)[Fuc(a1-2)[Gal(a1-3)]Gal(b1-3)GlcNAc(b1-2)Man(a1-6)]Man(b1-4)GlcNAc(b1-4)GlcNAc
# How it was run: as §1
# [12] = molecular target: Fuc(a1-2)[Gal(a1-3)]Gal(b1-3)GlcNAc(b1-2)Man(a1-3)[Fuc(a1-2)[Gal(a1-3)]Gal(b1-3)GlcNAc(b1-2)Man(a1-6)]Man(b1-4)GlcNAc(b1-4)[Fuc(a1-6)]GlcNAc
# How it was run: as §1
# [13] = molecular target: Fuc(a1-2)[Gal(a1-3)]Gal(b1-3)GlcNAc(b1-3)GalNAc
# How it was run: as §1
# [14] = molecular target: Fuc(a1-2)[Gal(a1-3)]Gal(b1-4)Glc
# How it was run: as §1
# [15] = molecular target: Fuc(a1-2)[Gal(a1-3)]Gal(b1-4)GlcNAc
# How it was run: as §1
# [16] = molecular target: Fuc(a1-2)[Gal(a1-3)]Gal(b1-4)GlcNAc(b1-2)Man(a1-3)[Fuc(a1-2)[Gal(a1-3)]Gal(b1-4)GlcNAc(b1-2)Man(a1-6)]Man(b1-4)GlcNAc(b1-4)GlcNAc
# How it was run: as §1
# [17] = molecular target: Fuc(a1-2)[Gal(a1-3)]Gal(b1-4)GlcNAc(b1-2)Man(a1-3)[Fuc(a1-2)[Gal(a1-3)]Gal(b1-4)GlcNAc(b1-2)Man(a1-6)]Man(b1-4)GlcNAc(b1-4)[Fuc(a1-6)]GlcNAc
# How it was run: as §1
# [18] = molecular target: Fuc(a1-2)[Gal(a1-3)]Gal(b1-4)GlcNAc(b1-3)GalNAc
# How it was run: as §1
# [19] = molecular target: Fuc(a1-2)[Gal(a1-3)]Gal(b1-4)[Fuc(a1-3)]Glc
# How it was run: as §1
# [20] = molecular target: Fuc(a1-2)[Gal(a1-3)]Gal(b1-4)[Fuc(a1-3)]GlcNAc
# How it was run: as §1
# [21] = molecular target: Fuc(a1-2)[Gal(a1-3)]Gal(b1-4)[Fuc(a1-3)]GlcNAc(b1-3)GalNAc
# How it was run: as §1
# [22] = molecular target: Fuc(a1-2)[Gal(a1-4)]Gal(b1-4)GlcNAc
# How it was run: as §1
# [23] = molecular target: Fuc(a1-2)[GalNAc(a1-3)]Gal
# How it was run: as §1
# [24] = molecular target: Fuc(a1-2)[GalNAc(a1-3)]Gal(b1-3)GalNAc(a1-3)[Fuc(a1-2)]Gal(b1-4)GlcNAc
# How it was run: as §1
# [25] = molecular target: Fuc(a1-2)[GalNAc(a1-3)]Gal(b1-3)GlcNAc
# How it was run: as §1
# [26] = molecular target: Fuc(a1-2)[GalNAc(a1-3)]Gal(b1-3)GlcNAc(b1-2)Man(a1-3)[Fuc(a1-2)[GalNAc(a1-3)]Gal(b1-3)GlcNAc(b1-2)Man(a1-6)]Man(b1-4)GlcNAc(b1-4)GlcNAc
# How it was run: as §1
# [27] = molecular target: Fuc(a1-2)[GalNAc(a1-3)]Gal(b1-3)GlcNAc(b1-2)Man(a1-3)[Fuc(a1-2)[GalNAc(a1-3)]Gal(b1-3)GlcNAc(b1-2)Man(a1-6)]Man(b1-4)GlcNAc(b1-4)[Fuc(a1-6)]GlcNAc
# How it was run: as §1
binder,measurement,setting,value
"FedF (Escherichia coli), Q47212 (protein) MRLKYILIIPLLLISLSVFASTLQVDKSVSYDWINSSASSAQVTGTLLGTGKTNTTQMPALYTWQHQIYNVNFIPSSSGTLTCQAGTILVWKNGRETQYALECRVSIHHSSGSINESQWGQQSQVGFGTACGNKKCRFTGFEISLRIPPNAQTYPLSSGDLKGSFSLTNKEVNWSASIYVPAIAKSYRLDTSITLPDTVNLKQNQATPVYYTFSAPSVSNTITGIPNQNDMPSSNVKLTIGPIQSKTTALYVQPDATGSWYDLSKSITMTVVKSSMLNFKGINAKPGNVTLSVPIVFEIQ",glycan array binding signal (z-score),[1],-0.141
same,glycan array binding signal (z-score),[2],-0.172
same,glycan array binding signal (z-score),[3],-0.059
same,glycan array binding signal (z-score),[4],-0.053
same,glycan array binding signal (z-score),[5],-0.224
same,glycan array binding signal (z-score),[6],0.222
same,glycan array binding signal (z-score),Fuc(a1-2)Gal6S(b1-4)Glc,-0.127
same,glycan array binding signal (z-score),[7],-0.185
same,glycan array binding signal (z-score),[8],-0.183
same,glycan array binding signal (z-score),Fuc(a1-2)GlcNAc,0.049
same,glycan array binding signal (z-score),Fuc(a1-2)[Gal(a1-3)]Gal,0.117
same,glycan array binding signal (z-score),[9],-0.084
same,glycan array binding signal (z-score),[10],-0.103
same,glycan array binding signal (z-score),[11],-0.04
same,glycan array binding signal (z-score),[12],-0.229
same,glycan array binding signal (z-score),[13],-0.075
same,glycan array binding signal (z-score),[14],-0.259
same,glycan array binding signal (z-score),[15],-0.44
same,glycan array binding signal (z-score),[16],-0.099
same,glycan array binding signal (z-score),[17],-0.179
same,glycan array binding signal (z-score),[18],-0.113
same,glycan array binding signal (z-score),[19],-0.162
same,glycan array binding signal (z-score),[20],0.755
same,glycan array binding signal (z-score),[21],-0.134
same,glycan array binding signal (z-score),[22],-0.434
same,glycan array binding signal (z-score),[23],0.212
same,glycan array binding signal (z-score),[24],-0.154
same,glycan array binding signal (z-score),[25],-0.282
same,glycan array binding signal (z-score),[26],-0.123
same,glycan array binding signal (z-score),[27],-0.137
